Data from article PMC3313914.
These are yes or no findings as the source states them, for the method shown. In cells and extracts the contact can be indirect. Some results given as binding are weak or reduced against the parent protein; the word gives no strength. For part of these data: Tags and fused reporters may be left off the sequences shown. Values belong to the molecule of their own block, whether it stands above or below them.

Sequences of proteins named here, by UniProt entry; tags and fusion partners are left off. A change or cut given only in a name is not applied to a line headed by its entry.
UniProt P47822: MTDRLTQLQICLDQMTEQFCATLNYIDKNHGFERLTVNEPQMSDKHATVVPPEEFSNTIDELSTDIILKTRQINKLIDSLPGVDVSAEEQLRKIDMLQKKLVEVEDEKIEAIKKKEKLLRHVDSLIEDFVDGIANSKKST
UniProt P63208: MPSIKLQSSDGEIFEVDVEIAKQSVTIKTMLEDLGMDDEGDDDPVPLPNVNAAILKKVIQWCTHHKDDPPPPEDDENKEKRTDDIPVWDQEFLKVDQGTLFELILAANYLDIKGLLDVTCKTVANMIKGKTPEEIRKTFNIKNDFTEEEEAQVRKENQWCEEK
UniProt P52286: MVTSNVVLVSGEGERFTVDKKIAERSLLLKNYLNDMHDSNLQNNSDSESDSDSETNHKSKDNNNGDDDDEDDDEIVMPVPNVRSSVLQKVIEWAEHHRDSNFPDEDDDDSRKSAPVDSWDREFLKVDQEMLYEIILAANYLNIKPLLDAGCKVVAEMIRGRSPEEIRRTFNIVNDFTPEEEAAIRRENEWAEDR
UniProt Q06213: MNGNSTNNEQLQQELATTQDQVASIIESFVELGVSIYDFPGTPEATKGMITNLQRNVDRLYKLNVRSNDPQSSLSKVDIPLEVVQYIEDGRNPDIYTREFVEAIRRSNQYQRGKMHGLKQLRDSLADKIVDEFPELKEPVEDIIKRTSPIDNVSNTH

Tests used:
[1] = biological target: T1, Snf1-Cub-RUra3 (S. cerevisiae) (UniProt P06782); assay: split reporter; Split-Ubiquitin assay in S. cerevisiae JD52: Snf1-Cub-RUra3 from the SNF1 locus with Nub fusions of Mediator subunits; growth on FOA and lack of growth without uracil; 28°C
T1 sequence: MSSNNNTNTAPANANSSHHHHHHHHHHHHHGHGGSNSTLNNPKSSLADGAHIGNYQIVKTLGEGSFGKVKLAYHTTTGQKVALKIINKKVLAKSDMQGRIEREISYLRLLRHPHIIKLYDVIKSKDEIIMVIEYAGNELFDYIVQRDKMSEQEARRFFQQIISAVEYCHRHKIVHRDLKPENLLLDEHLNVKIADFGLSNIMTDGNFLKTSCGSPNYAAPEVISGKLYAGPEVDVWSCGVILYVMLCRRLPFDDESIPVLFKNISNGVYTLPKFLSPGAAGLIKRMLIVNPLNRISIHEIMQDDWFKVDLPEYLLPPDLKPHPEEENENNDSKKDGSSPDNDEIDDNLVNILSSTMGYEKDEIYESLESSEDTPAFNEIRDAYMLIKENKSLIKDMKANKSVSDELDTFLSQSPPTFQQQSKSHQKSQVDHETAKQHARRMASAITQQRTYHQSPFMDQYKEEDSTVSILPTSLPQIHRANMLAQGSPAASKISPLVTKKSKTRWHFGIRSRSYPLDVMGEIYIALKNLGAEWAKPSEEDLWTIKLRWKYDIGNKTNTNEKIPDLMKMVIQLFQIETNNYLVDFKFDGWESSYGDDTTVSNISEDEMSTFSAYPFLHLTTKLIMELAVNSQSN

[2] = biological target: Srb7 fused to Cub-RUra3 (S. cerevisiae) (UniProt P47822); assay: split reporter; Split-Ubiquitin assay in S. cerevisiae JD52: Srb7 fused to Cub-RUra3 and Nub-HA fused to Skp1 derivatives; lack of growth without uracil and growth on FOA
hSrb7-Cub-RUra3 (human) = biological target: T2, hSrb7-Cub-RUra3 (human) (UniProt Q13503); assay: split reporter; Split-Ubiquitin screen and retest in S. cerevisiae JD52: hSrb7-Cub-RUra3 with a Nub library of human B-cell cDNAs; FOA plates with 10 µM CuSO4; interaction shown by FOA resistance
T2 sequence: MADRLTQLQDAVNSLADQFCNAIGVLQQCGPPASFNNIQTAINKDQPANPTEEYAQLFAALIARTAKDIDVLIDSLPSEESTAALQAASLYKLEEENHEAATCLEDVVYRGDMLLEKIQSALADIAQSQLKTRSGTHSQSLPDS

GST-hSrb7 (human) = biological target: T3, GST-hSrb7 (human) (UniProt Q13503); assay: pull-down; GST fusions purified from E. coli extracts with glutathione beads, incubated with S. cerevisiae extract containing Nub-HA-hSkp1; washed five times; Western blot with anti-HA; only the target purified
T3 sequence: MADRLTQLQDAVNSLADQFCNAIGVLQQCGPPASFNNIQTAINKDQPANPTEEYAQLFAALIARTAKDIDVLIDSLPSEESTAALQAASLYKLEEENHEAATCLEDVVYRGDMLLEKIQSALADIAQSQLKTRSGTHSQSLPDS

hSrb7-Cub-RGpt2 (human) = biological target: T4, hSrb7-Cub-RGpt2 (human) (UniProt Q13503); assay: split reporter; human Split-Ubiquitin system in HT1080HPRT- fibroblast cells stably expressing hSrb7-Cub-RGpt2 and Nub-hSkp1; growth in 6TG media and lack of growth in HAT media
T4 sequence: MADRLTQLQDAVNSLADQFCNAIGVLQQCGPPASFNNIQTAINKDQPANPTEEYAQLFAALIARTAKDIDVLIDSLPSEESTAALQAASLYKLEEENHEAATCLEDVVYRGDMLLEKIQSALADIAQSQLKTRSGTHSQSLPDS

[3] = biological target: T5, GST-Gal80 (S. cerevisiae) (UniProt P04387); assay: pull-down; GST or GST-Gal80 expressed in BY4741ΔW cells together with the HA-tagged partner; cells grown with glucose or induced with galactose for 1 h; pulled down from cell extracts with glutathione beads, 4°C, 1 h, five washes; Western blot with anti-HA
T5 sequence: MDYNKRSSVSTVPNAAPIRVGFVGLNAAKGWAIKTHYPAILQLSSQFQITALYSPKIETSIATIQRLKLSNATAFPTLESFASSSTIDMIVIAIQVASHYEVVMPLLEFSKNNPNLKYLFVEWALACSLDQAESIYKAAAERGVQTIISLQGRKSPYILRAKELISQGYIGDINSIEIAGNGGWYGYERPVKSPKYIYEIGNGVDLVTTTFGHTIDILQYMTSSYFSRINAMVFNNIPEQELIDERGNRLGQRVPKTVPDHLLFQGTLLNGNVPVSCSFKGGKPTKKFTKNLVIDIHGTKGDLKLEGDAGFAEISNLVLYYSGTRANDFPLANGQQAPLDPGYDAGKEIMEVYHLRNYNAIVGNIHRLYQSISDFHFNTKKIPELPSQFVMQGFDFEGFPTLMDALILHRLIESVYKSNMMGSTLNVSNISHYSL

GST-hSkp1 (human) = GST-hSkp1 (human) (UniProt P63208); assay: pull-down; GST fusions purified from E. coli extracts with glutathione beads, incubated with E. coli extract containing H6-HA-hSrb7; washed five times; Western blot with anti-HA; only the target purified
myc-tagged hSkp1 (human) = myc-tagged hSkp1 (human) (UniProt P63208); assay: co-IP; lysate (PBS, freeze-thaw) of HeLa cells transfected with pCMV-myc-hSKP1; anti-myc agarose beads overnight in ice cold PBS; four washes; blot with anti-Med6

binding [1]: no binding
Molecule: Nub fusion of Srb7 (from UniProt P47822 1-140)

binding [2]: no binding
Molecule: Nub-HA-Skp1V90A,E129A (from UniProt P52286 1-194)

binding (hSrb7-Cub-RUra3 (human)): binds
binding (GST-hSrb7 (human)): binds
Molecule: Nub-HA-hSkp1 (from UniProt P63208 1-163)

binding [3]: binds
B5: HA3-tagged Das1 (protein, UniProt P47005 1-663)
chain: MPFQDYFQKKKAAFINRNNKSNADASALRDINDININFAAKSKNYVFPLTKLPDELMQEVFSHLPQPDRLQLCLVNKRLNKIATKLLYRRIYLNDSNVVKSDFMHLAINWTLLNLPSSLKEEESRDIANCKLKKLIETLQNNIHITEVIQWIRINWDLDSTLQRSILSILCNQGKSLQRLENVTDPACNDIISNGHFSRSNVSSFDMAPPNSLPEMVVPENYIPNLTKYLSQRISSRLSHMTLFIDPLKLFNYLYPLDIKLQIIDLKLHWRREFYNNDYFVKKIRPGNPLTKLSEVFDKRTLKILTIISWNDTLLKRETEMLKDFKEFENLEDLSLISIKQDVHILVDLFSSLTNLKRLKMDFLEEYVPEPTNPHIFLSILLACSKLQFIDLRYDGLIPQIINIQENKFQLNQQCNCTNCQIVFSDILKGKIFMFPEDYYIHDLQDIAAKDIFKMMKYLSLLPYSKACDAYPSVRTQPMNLTNFVTKMNRNLLEYRNSKSQLVPKIVNNPHQHSTVTSTSTAHMSEPEMIIIDDDDDDDEINAAIPPSSDDTAATISTDLELPHESLTKRDIIMCYHALIHHFKSIYVTFLKSFPHLRFLMLNDIPTIVMEENNERIFEPVFYHYDYKSNLYGWSKESNKNLENDSNNNNNNSDTIARIATVM

The next lines start with the molecule.

Molecule: Nub fusion of Med10 (from UniProt Q06213 1-157)
binding [1]: binds

Molecule: Nub-hSkp1 (from UniProt P63208 1-163)
binding (hSrb7-Cub-RGpt2 (human)): binds

Molecule: Skp1-HA3-H10 (from UniProt P52286 1-194)
binding [3]: binds

B1: HA3-tagged Mdm30 (protein, UniProt Q05930 1-598)
chain: MTKRRNLFMVGSSFTIDHLPPEIWLCISKLVGTSDLHNLCLINRRLYLTITSDEIWKRRCYDRWINRESLDILTGNDYDSIPVSQWYSYYLRRAKWENKIFCLLWGLTEETNPQHFREKYLHILQFRHYKLATFLHRIIKQGYIPDKRPLDLITYANYLLKNVRHKYVFPLFYPTNAAELKNLNNMASRDAEMIYLRLSAIDTSFDDLLDAREFILNGICSDLLQKYKKIEEFLKLRPVTRVSKLISISTDYLDCFTQPHDSVGQTNDRATGRELHREDFMLLRVYSREGRGYKTIILAIIQAITKRYNVDSYLARDHLVVSEPDFPDGRAFVTVNEDFQPYIFDKEDLLSVWSNNFHNAENFESTVLPALLEPISIQHLLTEFFRELLRCKPRPFEGYPNRAHGLRDMFPYGKVEVPRDVTMYFAFIYDLFDGMFESGMTSLRGQMLRDLLNYVNANNFGDLNIIIGQNALKEPNDCWSNKRDYVLLDDNNKIGYFYTDIETEDTLCALNQYEVDGKVFITTIDILGDIRVRLAEGLTPFQGDNDKLWESFSSVVPRTDWGLFFKGYDKERRRMQLNPYIEEKLSNLANDEQPLHNL
binding [3]: binds

B2: Nub fusion of Med6 (protein, UniProt P38782 1-295)
chain: MNVTPLDELQWKSPEWIQVFGLRTENVLDYFAESPFFDKTSNNQVIKMQRQFSQLNDPNAAVNMTQNIMTLPDGKNGNLEEEFAYVDPARRQILFKYPMYMQLEEELMKLDGTEYVLSSVREPDFWVIRKQRRTNNSGVGSAKGPEIIPLQDYYIIGANIYQSPTIFKIVQSRLMSTSYHLNSTLESLYDLIEFQPSQGVHYKVPTDTSTTATAATNGNNAGGGSNKSSVRPTGGANMATVPSTTNVNMTVNTMGTGGQTIDNGTGRTGNGNMGITTEMLDKLMVTSIRSTPNYI
binding [1]: binds

B3: Nub fusion of Srb6 (protein, UniProt P32570 1-121)
chain: MSNQALYEKLEQTRTILSVKLAELINMTTIADRNDDDEGSFAQENSELAVATTSVMMVNNQTMQLIKNVQDLLILTRSIKEKWLLNQIPVTEHSKVTRFDEKQIEELLDNCIETFVAEKTT
binding [1]: binds

B4: Nub fusion of Srb11 (protein, UniProt P47821 1-323)
chain: MSGSFWTSTQRHHWQYTKASLAKERQKLWLLECQLFPQGLNIVMDSKQNGIEQSITKNIPITHRDLHYDKDYNLRIYCYFLIMKLGRRLNIRQYALATAHIYLSRFLIKASVREINLYMLVTTCVYLACKVEECPQYIRTLVSEARTLWPEFIPPDPTKVTEFEFYLLEELESYLIVHHPYQSLKQIVQVLKQPPFQITLSSDDLQNCWSLINDSYINDVHLLYPPHIIAVACLFITISIHGKPTKGSSLASAASEAIRDPKNSSSPVQIAFNRFMAESLVDLEEVMDTIQEQITLYDHWDKYHEQWIKFLLHTLYLRPASAI
binding [1]: binds

B6: HA3-tagged Ufo1 (protein, UniProt Q04511 1-668)
chain: MERPGLVLQDLPPEILINIFSHLDEKDLFTLQELSTHFRNLIHDEELWKNLFKSRVHTTHFPTFSQSSKFSVEYIERTRGLHHWQHNKAIRTKYTIIPTRNWDQPSIERIVFDYPRVAAYNDGTITILQLQNHKRQKKFKKLIYIPCTTPQGCSTMDFNINAAVFGRFDGRVFGKLLSNKSYLTPVMEFTGRHSAGVTAICNSESWDTSREDWSVSGSENGEIIWWCENKLVKMWKVSNRVIWKLAFFKDWTLIMDDEKLYIIHQMQELHSIDIPKDLDEQPMRVRFFKMDFGSMTLVLADLNNVYTISVNPNGNFGNLRKLEMPEQICAVEIDEKTSQREQNWQFAGDDGCYISLLTTQNTLYIINIRDLSSSGLKVQCKISFDEQVYVSQVTNLIVVVALPNVLQILNAMTGELIKTVLKTEKFPEFLKVSQDKIIMGSGNVLNYLKFVSSDSKKHHHSTKGKNTVSNKWNETLNTELQYYDEDEDLRRKRQSEISRLIDAYGGDLELSGDTDEENDIQLRIALLESQEAQARNQAEAGEPVGDDEDEQLRRALEESQLIYETQTNSSANHGNNTNDEIDEDDEEFLRAIRQSRVEDERRRHLRNHTTGRRNGPLSDDNFATYGAAESSERTSTENTIGSSVGVDASNNVDEDLQLAIALSLSEIN
binding [3]: binds

B7: H6-HA-hSrb7 (protein, UniProt Q13503 1-144)
chain: MADRLTQLQDAVNSLADQFCNAIGVLQQCGPPASFNNIQTAINKDQPANPTEEYAQLFAALIARTAKDIDVLIDSLPSEESTAALQAASLYKLEEENHEAATCLEDVVYRGDMLLEKIQSALADIAQSQLKTRSGTHSQSLPDS
binding (GST-hSkp1 (human)): binds

B8: hMed6 (protein, UniProt O75586 1-246)
chain: MAAVDIRDNLLGISWVDSSWIPILNSGSVLDYFSERSNPFYDRTCNNEVVKMQRLTLEHLNQMVGIEYILLHAQEPILFIIRKQQRQSPAQVIPLADYYIIAGVIYQAPDLGSVINSRVLTAVHGIQSAFDEAMSYCRYHPSKGYWWHFKDHEEQDKVRPKAKRKEEPSSIFQRQRVDALLLDLRQKFPPKFVQLKPGEKPVPVDQTKKEAEPIPETVKPEEKETTKNVQQTVSAKGPPEKRMRLQ
binding (myc-tagged hSkp1 (human)): binds
